From article PMC10726135 come the findings set out here.

The list shows a part of the results. At the low end of the ranking the order means little. The protein was read in a cell extract, so binding may be indirect.

In the assay the target is T1, HNF4alpha8 (COS-7 nuclear extract) (UniProt P41235-5).
T1 sequence: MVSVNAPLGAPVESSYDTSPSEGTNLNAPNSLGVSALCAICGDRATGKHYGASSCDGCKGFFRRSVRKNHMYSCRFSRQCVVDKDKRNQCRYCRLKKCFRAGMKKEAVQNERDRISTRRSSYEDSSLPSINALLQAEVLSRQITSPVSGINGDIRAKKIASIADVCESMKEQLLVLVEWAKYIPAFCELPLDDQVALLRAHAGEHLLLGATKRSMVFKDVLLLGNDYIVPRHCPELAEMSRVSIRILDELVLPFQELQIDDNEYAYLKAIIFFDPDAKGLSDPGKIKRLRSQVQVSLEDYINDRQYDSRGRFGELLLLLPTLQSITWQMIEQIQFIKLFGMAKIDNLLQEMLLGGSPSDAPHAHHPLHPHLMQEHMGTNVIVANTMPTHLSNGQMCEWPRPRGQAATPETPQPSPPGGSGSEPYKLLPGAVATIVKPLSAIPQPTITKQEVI
As to the kind of experiment: protein-binding microarray. The note with it: COS-7 nuclear extract on double-stranded Agilent 4x180k PBM; binding buffer, salt, pH and temperature not given; high values mean tight binding; double strand, one strand shown; sequences stand for … in …GCCTAGGGAGATTAGAGTATCGGTCGA
Regarding TGTCCTGTGATTAAGGTCAATGGGAAACTA, the binding signal (log2 normalized intensity) stood at 1.05.
For the sequence ATCCAAAGGTCAGTGACAAATGTCAGACAA, the binding signal (log2 normalized intensity) came out at 3.09.
For TGTGTTTCCTGGATTGTGAAACACAGGACT, the binding signal (log2 normalized intensity) worked out at 0.6.
For CTAATGGAGAGGATGGGGACAAAGGTCAAG, the binding signal (log2 normalized intensity) came out at 8.12.
Next, TCCCTGTGGTATTTGCTCTGTCATCAACGT: 1.25.
Take GCCTAGGTGACAAGGAAAACTACACTCTTG: the binding signal (log2 normalized intensity) was -1.33.
CAAACTCAATCCTGGCCTCTGAGGTGTTAA: the binding signal (log2 normalized intensity) is -0.113.
TTTGGGTTTGAAGGCTCCGGAAACGTATGA: the binding signal (log2 normalized intensity) worked out at 0.646.
For TTCCTGCATTAACATCAACATGGACTTTGA, the binding signal (log2 normalized intensity) was 9.28.
In the case of TTGTTCCATGCCACAGAATCGCCCCACCCT, the binding signal (log2 normalized intensity) is 4.28.
Take CCCCCACCCTGTGTCAGCATCTAAACCTCT: the binding signal (log2 normalized intensity) was 2.65.
TCGCACGGCAGAACTGGTGACCGGACACAA: the binding signal (log2 normalized intensity) was -1.07.
On to CTGTAACACAGTTGCACTCACTAGCATTAG, for which the binding signal (log2 normalized intensity) is -1.22.
As for TTCAAGGTCCAGCCTACCCACCCACACCTC, the figure is 3.42.
TTCTAACCAATGCAGCTGGGAGATAAGATA: the binding signal (log2 normalized intensity) came out at 0.222.
As to TGGCTGCAGAGTGGGAGGCCAAGAGATAAA, the binding signal (log2 normalized intensity) was -1.31.
AGGGATTCCTGAAGATCGCAGACTTTGGAC: the binding signal (log2 normalized intensity) stood at 6.44.
As to CCCAAACGAATGGGCAAAACATTCCTAAAC, the binding signal (log2 normalized intensity) was -1.33.
For ATATCTTTGTCTCAGGAACTTTGTTTGTGT, the binding signal (log2 normalized intensity) was 2.36.
As for TGGCAAATATCAGCATGGTATGTGGCTTGC, the binding signal (log2 normalized intensity) was 0.658.
As for CAGTATAAACAACACAGAACTAGCCAGACC, the binding signal (log2 normalized intensity) is -1.28.
As for AATTGCTACTTCCGGCGTCGATTAGCTGGG, the figure is -0.923; as for CTCATGCTAAAAGTTGAATTCTTGACTTTG, 0.997.
As for TAACCCCAGTTTAGCAATTTGCTCTCTGCT, the binding signal (log2 normalized intensity) was 0.105.
On to AGCTATTGCTCTGCATGGATTAGCCAGCTA, for which the binding signal (log2 normalized intensity) was -1.27.
As to AAGTGGAGATTTCAGCCGCTTTGAGGTCAA, the binding signal (log2 normalized intensity) was found to be 2.6.
As for TGCACAACGACCCTTGCTCTGTTTTCTGAC, the binding signal (log2 normalized intensity) turned out to be 2.59.
As for CAGCACTGGGTGGGGATAAGAAAAGATCAA, the figure is -1.26.
As for TATGTGGTGGGTGTGGTGATGGCAGGAGTC, the binding signal (log2 normalized intensity) is 1.45.
Turning to AATTACCATTCTTGAGGACAGGCCAAATCC, the binding signal (log2 normalized intensity) was -1.27.
With GACCTCTGCCCTACTGTATATCCTGACACA, the binding signal (log2 normalized intensity) came to 2.87.
For the sequence AGACATTGGCTAAATCATGGGGAGCATCTA, the binding signal (log2 normalized intensity) was -1.25.
For AACTTTGAAACAAGCCCATCTTCCAGAAAA, the binding signal (log2 normalized intensity) was -1.29.
For the sequence GCTGCAGGAGAGATGGTCAGATTTTATTTA, the binding signal (log2 normalized intensity) is -1.3.
As for TTAGCTCATTTCAGCCTTAACTCAAAAGGC, the binding signal (log2 normalized intensity) was -1.03.
As for TTCTGCCTTATCAGCGGCCCTGTGCTGCCC, the binding signal (log2 normalized intensity) came to 0.498.
Regarding CCCCAGTGTCAATTCTCATTCATCCAAGGA, the binding signal (log2 normalized intensity) was -0.247.
For the sequence GAGTGCTATCCTCTTATCTGAATGTATGGG, the binding signal (log2 normalized intensity) turned out to be 1.22.
On to TTATTGATTGCCTTTCATGTACTGTTCAGT, for which the binding signal (log2 normalized intensity) worked out at 2.05.
Consider TTTTAAGAGCCCATCCTTGTTTTGGGGGTT, for which the binding signal (log2 normalized intensity) is 1.32.
AGCTAACATGTACAGTATTGCGTAAGTTGT: the binding signal (log2 normalized intensity) amounted to 1.51.
As for AGATCAAACAGGGACAGATGTTTGGTTGAG, the figure is 0.0809; as for GCAGTCCATAAATGCTGTTGATAAAGTGAT, -0.542; as for ATCAGTGTACCTGTCCCTACTCAATTATCA, -0.023.
Next, TGCGCCGCAGCGAATGGTCGCGCCGGGCGC: -1.39; TTATCTTCCATGTATACTTATGTAGAAAGA: 0.707; GTGAAATGCCAGTGGGAAAACAAACTTTCC: -1.2.
Next, ATTTACTTACCTTTTCTAATCTCTCTCCCC: 2.48.
As to GAGCAGCCTGGGGTAAAACCAAACTGCAGC, the binding signal (log2 normalized intensity) was -1.32.
As to AGGTCAAACTATCTGAGGTGGTCCAGGGCC, the binding signal (log2 normalized intensity) is -0.945.
For AGAAAGGCAGAAGGTTCCAGGGAACTGTCC, the binding signal (log2 normalized intensity) is -1.37.
Regarding ATGCCTTTTCTTTCATGTTGTTTAGTCATG, the binding signal (log2 normalized intensity) was determined as 2.18.
TGGGCAATAAGCATTCTGTTTCCTACTGAC: the binding signal (log2 normalized intensity) was -1.25.
TTTGCTTTTTACCATCTCCAACATGACCAC: the binding signal (log2 normalized intensity) came out at 1.93.
As for AGGCAGCCATTGACGGTATGTGAATGCCTG, the figure is -1.04; as for AAACGACTGATTCTCAGGCATCTCTGGGGG, -0.992.
With CTCCCAAAAGGTATTTTTTGAATGACAGTG, the binding signal (log2 normalized intensity) was 0.975.
Take ATGAAGCAAGAGTCCAAATTCCTAGCCCTC: the binding signal (log2 normalized intensity) was determined as 2.14.
Next, CGGGTCAGCAGGGCACCGCCTCCACACCCC: 2.22; GAAACGTTTGAATTCTTGCCTATCCCATAG: -1.26; GTGGCTACCTGTGCAGATATTTAACCTTTG: 4.61.
Next, TTATGTACCACCGTATTCCTAGCTCCTAGC: -1.11.
For the sequence GGCAACAGTTTTCTGGGATGCCCAAGGAAT, the binding signal (log2 normalized intensity) is -1.29.
CACCTGATTCAATGTCTGGAAGTTCTTCCT: the binding signal (log2 normalized intensity) came to 0.261.
Take CTGCAGTTCAAAGGCAATATCACTTGTTTG: the binding signal (log2 normalized intensity) came out at 0.442.
For the sequence ATTCTTTGCCATGACCTTTGAAGCCCAGAA, the binding signal (log2 normalized intensity) turned out to be 5.57.
For the sequence CATTGATCTAACAGGAGGTGGAGCTCAGGA, the binding signal (log2 normalized intensity) worked out at 0.215.
Consider TTCAGGGCAGAAGAGGTTATCACAGGCTTG, for which the binding signal (log2 normalized intensity) was -1.
On to GTGAGAAGAGAAACACATGCAATCACACTA, for which the binding signal (log2 normalized intensity) was -1.21.
As for CCAAAACTCTCTCTCTGTGTCACATACACC, the binding signal (log2 normalized intensity) was -0.848.
Next, GGTCACACTGCACCTGCCTGAACAAGTCCA: -1.26.
Regarding TGCTGGGCTGCATTCCCAGATGGTTAGGTA, the binding signal (log2 normalized intensity) is -0.562.
